Laboratory results published in article PMC10668032.
This is one part of the list. At the low end of the ranking the order means little.

Target: SIX1 homeodomain (reference allele) (UniProt Q15475)
Test: universal protein binding microarray
Settings: Universal all-10-mer PBM (8x60K, AMADID 030236), 300 nM GST-tagged protein, Alexa Fluor 488 anti-GST; buffer, salt, pH and temperature not stated; high values mean tight binding; most listed sequences are background and not binding sites; double strand, one strand shown

| Sequence | binding signal |
| --- | --- |
| CTATTTGC | -0.145 E-score |
| AACGCACA | 0.0635 E-score |
| AAGCCCTA | -0.202 E-score |
| AACCTGTA | -0.0386 E-score |
| TATATGAA | -0.0221 E-score |
| AAGCCTGC | -0.294 E-score |
| AATTACTC | -0.178 E-score |
| AGTATAAG | 0.161 E-score |
| AGTGCGGG | 0.0463 E-score |
| CGCGGGAC | -0.117 E-score |
| ATCGTCTA | 0.261 E-score |
| CCGTCACG | -0.165 E-score |
| CTGCTTGC | -0.245 E-score |
| AATGTGTG | -0.127 E-score |
| CTTGAGCA | -0.141 E-score |
| ATCTATCC | 0.372 E-score |
| CCGCGTTA | -0.0184 E-score |
| ATTCCGTA | 0.0707 E-score |
| GTCTTTAA | -0.025 E-score |
| AGGGTGTG | 0.125 E-score |
| CTCCGAGA | -0.00203 E-score |
| TGGCTCAA | 0.0458 E-score |
| AAATTACC | -0.176 E-score |
| TTCATGAA | -0.206 E-score |
| GACGCAGC | -0.0597 E-score |

| Sequence | binding signal |
| --- | --- |
| AGTCCTCG | -0.236 E-score |
| CCGCCTAA | -0.102 E-score |
| ACTTCCCC | -0.218 E-score |
| ATACTTAG | 0.205 E-score |
| AAACCTGT | -0.0785 E-score |
| CCCCATCA | 0.152 E-score |
| CAGTGTGA | 0.133 E-score |
| AAGCATTC | -0.162 E-score |
| AAGAATGG | -0.139 E-score |
| TAATGAAA | -0.336 E-score |
| CTCATCGA | 0.0474 E-score |
| TACATGTA | 0.176 E-score |
| CTTTGATA | 0.331 E-score |
| GGCCGCAC | -0.287 E-score |
| CGATTGAG | -0.117 E-score |
| CAACGGGA | -0.17 E-score |
| AGAGGTCG | -0.0976 E-score |
| CAAATAAG | -0.251 E-score |
| CGCCGTTA | 0.051 E-score |
| GGAGGTAC | -0.205 E-score |
| AACGGATA | 0.421 E-score |
| AACCGCTG | -0.0859 E-score |
| ACACAGTG | -0.052 E-score |
| CTCTTGAA | -0.0709 E-score |
| ACGCGAGG | -0.14 E-score |

| Sequence | binding signal |
| --- | --- |
| CGCACGAA | 0.00358 E-score |
| ACATTGTC | -0.0312 E-score |
| ACACATAC | 0.164 E-score |
| CTTCATGA | 0.077 E-score |
| CACTCCTA | -0.0883 E-score |
| ATCAGTTG | 0.253 E-score |
| CACGCAAG | 0.115 E-score |
| GATTAGAA | 0.184 E-score |
| ACCGAGGA | 0.0936 E-score |
| GCCGGTTA | 0.0166 E-score |
| ACCATCAT | -0.0916 E-score |
| CAGGGTTC | -0.0102 E-score |
| GTAGGCCA | 0.17 E-score |
| GTCCAGTA | -0.022 E-score |
| ATAGATCG | 0.29 E-score |
| ACGTGTAC | -0.115 E-score |
| GGCGATTA | 0.0782 E-score |
| ACGGAACA | -0.0865 E-score |
| CTGGCATC | 0.144 E-score |
| GTCTACAC | 0.152 E-score |
| AGGACAGA | -0.0123 E-score |
| TGATAGAA | 0.0615 E-score |
| CGCACGCA | -0.11 E-score |
| GTCGCGAC | 0.0418 E-score |
| CGCTGTAA | -0.00013 E-score |

| Sequence | binding signal |
| --- | --- |
| AACGCCCG | -0.00791 E-score |
| ATCTATAA | 0.129 E-score |
| AAATTCGG | 0.0895 E-score |
| AACGGGCG | -0.196 E-score |
| CGCCGGTC | -0.155 E-score |
| AGGGGTAT | 0.451 E-score |
| CACGCTTA | -0.089 E-score |
| ACACATCG | -0.0745 E-score |
| CTTCCTCA | 0.0998 E-score |
| GCCCTCCC | -0.0271 E-score |
| AAGATTAA | 0.0139 E-score |
| CGCGCACC | -0.246 E-score |
| CAAGCAAC | -0.0422 E-score |
| CCATCGGC | -0.152 E-score |
| TAGCTATA | 0.219 E-score |
| AAGATATA | 0.28 E-score |
| CGTGCCCC | -0.0646 E-score |
| GAGATAAC | 0.00349 E-score |
| GTGTACGA | 0.143 E-score |
| AGCCATCG | 0.173 E-score |
| TCTTGTAA | -0.0871 E-score |
| AGGCCCTC | -0.203 E-score |
| CCGACCCC | -0.0364 E-score |
| CAGATTCG | -0.0198 E-score |
| CGGCAGTC | -0.0341 E-score |

| Sequence | binding signal |
| --- | --- |
| TCGCGACA | 0.193 E-score |
| CATACCGG | 0.166 E-score |
| CAGGAAAA | 0.0276 E-score |
| GCCTTAAA | -0.282 E-score |
| AAGTCTGT | -0.22 E-score |
| CAATGCAC | -0.0407 E-score |
| AGATTGAA | -0.0776 E-score |
| AAAAAGGC | -0.102 E-score |
| ACCTATAC | 0.275 E-score |
| AGGTGAAG | -0.144 E-score |
| TCAATTCA | -0.034 E-score |
| AACGATAG | 0.175 E-score |
| AGAGATAG | 0.153 E-score |
| CCGGCCAG | -0.0713 E-score |
| GAGCGATA | 0.344 E-score |
| TGTGATAA | -0.00135 E-score |
| AGGAGAGG | 0.137 E-score |
| TCTTTCAA | -0.0888 E-score |
| GATTCGTA | 0.109 E-score |
| ATGGGGAG | -0.0213 E-score |
| CTATGGGA | 0.0544 E-score |
| AGCCTTTA | -0.189 E-score |
| GCGTTGGA | 0.098 E-score |
| AAGAGACC | 0.0447 E-score |
| CACATGTA | -0.0324 E-score |

| Sequence | binding signal |
| --- | --- |
| ATTTGCAA | -0.2 E-score |
| GTTTTCAA | -0.26 E-score |
| GGTGGCTA | 0.092 E-score |
| CGGCCATA | 0.025 E-score |
| AACCGGGA | -0.0255 E-score |
| CTTGTGGC | -0.224 E-score |
| GAGGTGAA | -0.129 E-score |
| CGGCGTCC | -0.154 E-score |
| ACGAGGCG | 0.00865 E-score |
| ACGCGCGA | 0.00968 E-score |
| CCCGTAGG | 0.129 E-score |
| AACCCGGG | 0.177 E-score |
| ACGTCCCG | -0.239 E-score |
| GGTAAAAC | -0.147 E-score |
| CACGTAAC | -0.253 E-score |
| AGAGTTTC | -0.293 E-score |
| TGGATTAA | 0.145 E-score |
| CCCTGTCA | -0.0609 E-score |
| AGAGGCTG | -0.259 E-score |
| CATGATAC | 0.481 E-score |
| GCGTAGGA | 0.134 E-score |
| GAAGCTAA | -0.159 E-score |
| ACCATGCG | 0.129 E-score |
| ATTTATCA | -0.051 E-score |
| GGATGTCA | 0.0855 E-score |

| Sequence | binding signal |
| --- | --- |
| CCTTTTCG | -0.26 E-score |
| CAAACTCG | -0.256 E-score |
| ATCAAGAT | 0.209 E-score |
| AGGCAAGA | -0.0736 E-score |
| AGATTCCG | 0.0802 E-score |
| ACGATGAT | 0.235 E-score |
| GCCCACCC | 0.0209 E-score |
| CAGGGTAG | 0.0982 E-score |
| AAAGTTAC | -0.227 E-score |
| AACTGTAA | -0.25 E-score |
| CCGCCAAA | -0.0985 E-score |
| CCGTTCAG | -0.11 E-score |
| ACTCCCTC | -0.163 E-score |
| CGATGACG | -0.17 E-score |
| CTGGGACC | -0.184 E-score |
| ACGAATTC | -0.165 E-score |
| AAGTTTAC | -0.206 E-score |
| ACGATGAA | -0.166 E-score |
| CAATCGTC | -0.155 E-score |
| GACATGCC | 0.0105 E-score |
| ACATTCCC | -0.179 E-score |
| ACTTGGGG | -0.0492 E-score |
